Results reported in PMC10604658.
These are yes or no findings as the source states them, for the method shown. Binding seen in cells or lysates may run through a third protein. Some binding calls cover weakened binding; strength is not graded here. Tags and fused reporters may be left off the sequences shown.

Key:
SFB-USP39 (human) [1] = target: T1, SFB-USP39 (human) (UniProt Q53GS9); assay: pull-down; HEK293T cells co-transfected with MYC-ETS2 (or its mutants) and SFB-DUB (or USP39 mutants); SFB protein pulled down with S-protein agarose beads from NETN lysate, overnight at 4 °C; bound MYC protein detected by anti-MYC blot
T1 sequence: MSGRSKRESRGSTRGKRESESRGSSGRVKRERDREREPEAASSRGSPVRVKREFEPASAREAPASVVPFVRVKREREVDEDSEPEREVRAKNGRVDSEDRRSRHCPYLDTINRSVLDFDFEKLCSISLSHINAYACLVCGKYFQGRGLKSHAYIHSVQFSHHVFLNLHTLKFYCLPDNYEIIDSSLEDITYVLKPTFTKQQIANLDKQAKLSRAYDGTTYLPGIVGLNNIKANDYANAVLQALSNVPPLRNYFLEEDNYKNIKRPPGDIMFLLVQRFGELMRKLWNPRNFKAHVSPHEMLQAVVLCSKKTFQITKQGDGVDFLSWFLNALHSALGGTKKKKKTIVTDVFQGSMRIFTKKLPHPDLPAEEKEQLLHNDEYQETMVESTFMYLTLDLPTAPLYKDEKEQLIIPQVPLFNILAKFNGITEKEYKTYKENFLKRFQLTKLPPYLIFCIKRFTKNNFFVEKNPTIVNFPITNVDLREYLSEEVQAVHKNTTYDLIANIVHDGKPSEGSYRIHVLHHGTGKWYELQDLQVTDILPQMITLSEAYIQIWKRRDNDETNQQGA

SFB-TNFAIP3 (human) = target: T2, SFB-TNFAIP3 (human) (UniProt P21580); assay: pull-down; screen: HEK293T cells co-transfected with MYC-ETS2 and each of 59 SFB-tagged human DUBs; DUB pulled down with S-protein agarose beads from NETN lysate (100 mM NaCl, 0.05% NP-40), overnight at 4 °C; bound ETS2 detected by anti-MYC blot
T2 sequence: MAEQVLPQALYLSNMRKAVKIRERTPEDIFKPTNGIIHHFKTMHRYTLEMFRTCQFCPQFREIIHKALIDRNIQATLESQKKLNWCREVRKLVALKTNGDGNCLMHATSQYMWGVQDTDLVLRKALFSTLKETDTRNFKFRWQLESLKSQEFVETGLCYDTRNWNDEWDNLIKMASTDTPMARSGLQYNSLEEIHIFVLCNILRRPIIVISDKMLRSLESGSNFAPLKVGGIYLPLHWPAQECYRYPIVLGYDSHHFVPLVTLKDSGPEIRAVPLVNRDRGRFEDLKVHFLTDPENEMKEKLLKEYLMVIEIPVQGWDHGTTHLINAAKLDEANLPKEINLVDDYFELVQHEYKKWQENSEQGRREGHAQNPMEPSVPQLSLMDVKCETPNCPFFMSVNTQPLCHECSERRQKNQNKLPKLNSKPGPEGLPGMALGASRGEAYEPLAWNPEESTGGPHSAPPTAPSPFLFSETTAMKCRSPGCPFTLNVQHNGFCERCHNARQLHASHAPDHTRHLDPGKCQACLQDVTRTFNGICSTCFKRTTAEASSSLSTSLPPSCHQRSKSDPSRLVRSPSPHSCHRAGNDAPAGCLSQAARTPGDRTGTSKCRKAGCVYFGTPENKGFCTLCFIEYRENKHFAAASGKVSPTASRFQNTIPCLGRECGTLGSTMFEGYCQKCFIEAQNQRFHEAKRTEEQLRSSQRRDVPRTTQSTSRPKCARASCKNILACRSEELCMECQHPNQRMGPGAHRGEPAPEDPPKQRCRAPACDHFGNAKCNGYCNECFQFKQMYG

SFB-USP39 (human) [2] = target: T1, SFB-USP39 (human); assay: as above
SFB-USP44 (human) = target: T3, SFB-USP44 (human) (UniProt Q9H0E7); assay: as above
T3 sequence: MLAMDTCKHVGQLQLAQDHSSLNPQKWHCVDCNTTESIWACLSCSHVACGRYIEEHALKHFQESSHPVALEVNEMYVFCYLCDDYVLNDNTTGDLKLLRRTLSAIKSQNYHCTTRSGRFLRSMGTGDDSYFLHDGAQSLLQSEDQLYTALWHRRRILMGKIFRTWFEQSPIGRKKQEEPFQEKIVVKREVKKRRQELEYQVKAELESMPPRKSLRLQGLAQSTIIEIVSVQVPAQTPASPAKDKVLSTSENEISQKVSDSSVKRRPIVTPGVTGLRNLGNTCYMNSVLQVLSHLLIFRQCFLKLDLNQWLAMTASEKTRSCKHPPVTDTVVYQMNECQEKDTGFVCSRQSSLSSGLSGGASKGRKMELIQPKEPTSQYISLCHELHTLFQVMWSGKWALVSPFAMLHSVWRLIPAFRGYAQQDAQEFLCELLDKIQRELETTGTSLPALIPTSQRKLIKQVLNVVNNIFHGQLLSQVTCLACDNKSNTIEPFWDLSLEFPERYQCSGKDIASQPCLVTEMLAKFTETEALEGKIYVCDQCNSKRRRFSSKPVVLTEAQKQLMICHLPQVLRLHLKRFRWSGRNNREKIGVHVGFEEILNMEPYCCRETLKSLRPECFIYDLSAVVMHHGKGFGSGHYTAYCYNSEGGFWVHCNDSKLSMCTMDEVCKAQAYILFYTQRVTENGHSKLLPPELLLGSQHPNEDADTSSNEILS

Measured: binding

B1: MYC-ETS2 (protein, UniProt P15036 1-469)
chain: MNDFGIKNMDQVAPVANSYRGTLKRQPAFDTFDGSLFAVFPSLNEEQTLQEVPTGLDSISHDSANCELPLLTPCSKAVMSQALKATFSGFKKEQRRLGIPKNPWLWSEQQVCQWLLWATNEFSLVNVNLQRFGMNGQMLCNLGKERFLELAPDFVGDILWEHLEQMIKENQEKTEDQYEENSHLTSVPHWINSNTLGFGTEQAPYGMQTQNYPKGGLLDSMCPASTPSVLSSEQEFQMFPKSRLSSVSVTYCSVSQDFPGSNLNLLTNNSGTPKDHDSPENGADSFESSDSLLQSWNSQSSLLDVQRVPSFESFEDDCSQSLCLNKPTMSFKDYIQERSDPVEQGKPVIPAAVLAGFTGSGPIQLWQFLLELLSDKSCQSFISWTGDGWEFKLADPDEVARRWGKRKNKPKMNYEKLSRGLRYYYDKNIIHKTSGKRYVYRFVCDLQNLLGFTPEELHAILGVQPDTED
binds: all assays above
